# Source: PubChem BioAssay AID686978 (National Center for Advancing Translational Sciences (NCATS), 2013)
# Values joined by “and” are separate entries in the source; they are usually repeats but may differ in a detail not shown here. Equal entries are not always repeated. Out of some 420,000 compounds screened, about 64,000 (15%) were called active. This list was built around the results that the source calls inconclusive (neither active nor inactive); the mix of calls is not that of the screen. Calls follow the shape of the dose curve; as a rule, active = well fitted inhibition curve with a large enough effect; inconclusive = small, poorly fitted or top-dose-only effect; inactive = flat fitted curve, though single readings scatter. Potencies beside an inconclusive call are fits to weak or partial responses and may not hold up.
# Assay: qHTS for Inhibitors of human tyrosyl-DNA phosphodiesterase 1 (TDP1): qHTS in cells in absence of CPT; also: nearly all actives have a fitted effect of over 55% in size
# Conditions: DT40 Tdp1-/- hTDP1 cells, no CPT, ATP luminescence, 48 h; activity change, negative = growth inhibition: at 46.2 µM (top of the series) unless noted
# Summary of the method: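 Growth of hTDP1-complemented DT40 Tdp1-knockout cells is measured by ATP luminescence after at least 48 hr compound exposure at 37 °C, with DMSO substituting for the 20 nM CPT used in the parallel screen.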
# % is scaled to controls: 0 for no effect and ±100 for the full control effect; potency is read from the fitted curve at half-maximal effect; tags tell the direction and shape of the fitted curve.
SMILES,Potency,"activity change, negative = growth inhibition"
CCn1c(SCC(=O)N2CCOCC2)nc2sc3c(c2c1=O)CCCC3,active: 18.4 µM,
Cc1cccc(Cn2c(=O)n(CCCC(=O)NCc3ccco3)c(=O)c3ccccc32)c1,active: 20.6 µM,
O=C(c1ccccc1)c1nnc(-c2ccccc2F)o1,"inconclusive: 25.9 µM [inhibitor, single point]",
COCCn1c(SCC(=O)c2[nH]c(C)c(C(C)=O)c2C)nc2ccccc21,"inconclusive: 18.4 µM [inhibitor, partial curve]",
CC(C)CCn1c(N)c(S(=O)(=O)c2cccs2)c2nc3ccccc3nc21,"inconclusive: 29.1 µM [inhibitor, single point]",
CCOc1c(/C=C(\C#N)C(N)=O)c2ccccc2n1CC,"inconclusive: 25.9 µM [inhibitor, single point]",
COC(=O)C1=C(C)Nc2nnnn2C1c1ccc(Cl)cc1Cl (stereo unspecified),"inconclusive: 16.4 µM [inhibitor, partial curve]",
Cc1cccc(-c2noc(-c3ccc(N4CCCC4)c([N+](=O)[O-])c3)n2)c1,,inconclusive: -35.8% [inhibitor]
COCCC1CCCCN1C(=O)c1cccc(OC2CCN(C3CCCC3)CC2)c1 (stereo unspecified),inactive,
CC(c1ccco1)N(C(=O)COc1ccc(Cl)cc1)c1ccccn1 (stereo unspecified),"inconclusive: 22.4 µM [inhibitor, single point]",
COc1cc(-c2cc(C(=O)OCC(=O)NC3CC3)c3ccccc3n2)cc(OC)c1OC,active: 18.4 µM,
Cc1ccc(F)cc1NCC(=O)Nc1ccc(Br)cc1,"inconclusive: 25.9 µM [inhibitor, single point]",
CC(C)(C)NC(=O)CSc1nnc(NC(=O)CCn2cnc3ccccc3c2=O)s1,,inconclusive: -40.2% [inhibitor]
COc1ccc(C=O)cc1CN1C(=O)c2ccccc2C1=O,"inconclusive: 20.6 µM [inhibitor, single point]",
CCN1CCN(C(=O)c2cc(-c3cccnc3)nc3ccc(Br)cc23)CC1,"inconclusive: 20.6 µM [inhibitor, single point]",
COc1ccccc1N1CCN(S(=O)(=O)c2c(C)[nH]c(=O)[nH]c2=O)CC1,inactive,
COc1ccc(CN2CCOCCOCCOCC2)cc1,inactive,
CCCCC(=O)O[C@]1(C(=O)CO)CC[C@H]2[C@@H]3CCC4=CC(=O)CC[C@]4(C)[C@H]3[C@@H](O)C[C@@]21C,"inconclusive: 33.5 µM [inhibitor, single point] and inconclusive: 9.2 µM [inhibitor, partial curve, poor fit]",
CC1CCN(c2nc3ccccc3nc2C(C#N)C(=O)OC2CCCCC2)CC1 (stereo unspecified),"inconclusive: 29.1 µM [inhibitor, single point]",
OCCNC(=S)c1ccccc1,inactive,
CCOC(=O)CNC(=S)N(CCCN1CCN(C)CC1)Cc1cccs1,inactive,
Cc1cc(CN2CCCC(C(=O)Nc3cccc(-n4cccn4)c3)C2)cc(C)c1O (stereo unspecified),"inconclusive: 25.9 µM [inhibitor, single point]",
CCOC(=O)CCC(=O)Nc1ccc(S(=O)(=O)N2CCC(C)CC2)cc1,inactive,
CCOC(=O)c1cc(-c2ccc(N3C(c4ccsc4)=Cc4ccccc4C3CC(C)=O)cc2)cc([N+](=O)[O-])c1 (stereo unspecified),inactive,

SMILES,Potency,"activity change, negative = growth inhibition"
COc1ccc(COCC(O)CN2CCc3ccccc3C2)cc1OC (stereo unspecified),inactive,
CCN(CC)CCCn1c2c(c(SCC(=O)Nc3cc(C)cc(C)c3)nc1=O)CCC2,"inconclusive: 29.1 µM [inhibitor, single point]",
COC(=O)CNC(=O)C12CC3(C)CC(C)(CC(C)(C3)C1)C2,"inconclusive: 8.2 µM [inhibitor, partial curve, poor fit]",
Cc1cc(C)c(Cn2c(=O)n(CCCCCC(=O)NCc3ccc4c(c3)OCO4)c(=O)c3sccc32)c(C)c1,"inconclusive: 2.59 µM [inhibitor, full curve, poor fit]",
O=C(NCc1csc(-c2cccs2)n1)c1cccc(Cl)c1,,inconclusive: -31.8% [inhibitor]
O=C(CSCc1ccc(F)cc1)N1CCN(c2ccccc2)CC1,"inconclusive: 16.4 µM [inhibitor, single point]",
CN(C)c1ccc(C(CNS(=O)(=O)c2cc(F)ccc2F)N2CCOCC2)cc1 (stereo unspecified),inactive,
COC(=O)c1c(C(=O)OC)c(-c2ccc(Cl)c(Cl)c2)n2c1CCC2,"inconclusive: 29.1 µM [inhibitor, single point]",
C#CCOc1c(Cl)cc(/C=C2/C(=O)ON=C2C)cc1OCC,"inconclusive: 29.1 µM [inhibitor, single point]",
O=C(CCc1ccccc1)NCC(c1ccco1)N1CCc2ccccc21 (stereo unspecified),active: 4.11 µM,
CC(=O)N1CCN(S(=O)(=O)c2ccc(S(=O)(=O)N3CCCC(C)C3)cc2)CC1 (stereo unspecified),inactive,
Cc1ccnc(N2CCC(C(=O)Nc3cccc(C(F)(F)F)c3)CC2)n1,"inconclusive: 29.1 µM [inhibitor, single point]",
Cc1noc(C)c1COC(=O)COc1ccc(-c2ccccc2)cc1,inactive,
COCCN(CCOC)S(=O)(=O)c1ccc(C(=O)Nc2nnc(COC)o2)cc1,inactive,
O=C1c2ccsc2SCCN1Cc1ccc(Cl)cc1Cl,"inconclusive: 25.9 µM [inhibitor, single point]",
CCN(CC)C(=O)c1sc(NC(=O)C2c3ccccc3Oc3ccccc32)c(C(=O)OC(C)C)c1C,active: 0.116 µM,
CCCCNC(=O)C1C(c2ccccc2)=Nc2ccccc2N1C(=O)c1ccc(C)cc1 (stereo unspecified),"inconclusive: 20.6 µM [inhibitor, single point]",
COc1ccc(NS(=O)(=O)c2ccc3[nH]c4c(c3c2)CCCC4)c(OC)c1,active: 20.6 µM,
O=C(Nc1ccc(Br)cc1)c1cccc(S(=O)(=O)Nc2ccccn2)c1,active: 16.4 µM,
O=C(NCc1cccc(C(F)(F)F)c1)C1C(=O)Nc2ccccc2C(=O)N1C1CCCC1 (stereo unspecified),inactive,
CC1(C)OC(=O)C=C[C@@]2(C)C1C[C@@H](O)[C@]1(C)C2CC[C@@]2(C)C(c3ccoc3)OC(=O)[C@H]3O[C@]321 (stereo partly specified),"inconclusive: 2.06 µM [inhibitor, single point]",
CC(C)OCCCNC(=O)NC(=O)c1ccc(Cl)cc1,active: 25.9 µM,
COc1ccccc1CNC(=O)c1sccc1-c1ccccc1,"inconclusive: 32.6 µM [inhibitor, single point]",
COc1cccc(NC(=O)Cn2c(=O)n(-c3cccc(OC)c3)c(=O)c3c4c(sc32)CCCC4)c1,active: 18.4 µM,

SMILES,Potency,"activity change, negative = growth inhibition"
Cc1cc(NC(=O)C(C)SCC(=O)Nc2ccccc2N2CCCCC2)no1 (stereo unspecified),"inconclusive: 25.9 µM [inhibitor, single point]",
O=C(Nc1cccc(F)c1)Nc1ccc2c(c1)OCO2,"inconclusive: 18.4 µM [inhibitor, single point]",
Cc1ccc(C(=O)N(Cc2nc3ccccc3c(=O)[nH]2)C2CCCC2)cc1,"inconclusive: 16.4 µM [inhibitor, single point]",
CCc1nc2c(OCCOc3ccc(F)cc3)cccn2c1N(C=O)Cc1ccc(OC)cc1,"inconclusive: 18.4 µM [inhibitor, single point]",
Cc1ccc(CN(C(=O)c2ccccc2Br)C2CCS(=O)(=O)C2)o1 (stereo unspecified),,inconclusive: -30.9% [inhibitor]
CCCC1(CCC)C(=O)NC(=NCCc2ccc(OC)c(OC)c2)NC1=O,inactive,
CCNC(=S)N1CCN(c2nc(-c3ccc(F)cc3)cs2)CC1,"inconclusive: 29.1 µM [inhibitor, single point]",
COc1ccc(N2CCN(C(=O)CN(Cc3ccc(Cl)cc3)S(C)(=O)=O)CC2)cc1,"inconclusive: 10 µM [inhibitor, partial curve]",
O=C(NCc1ccccc1Cl)c1ccc2nc([C@H]3C[C@H](O)[C@@H](CO)O3)[nH]c2c1,inactive,
CS(=O)(=O)N1CCN(c2cccc(Cl)n2)CC1,inactive,
O=C(NNC(=O)c1cccc(S(=O)(=O)N2CCCCC2)c1)c1ccccc1,inactive,
O=C1NC(=O)C2(CCCCC2C2CCCCC2)N1 (stereo unspecified),inactive,
O=C(Nc1ccccc1)c1cccc(N2C(=O)C3C4C=CC(C5CC45)C3C2=O)c1 (stereo unspecified),"inconclusive: 29.1 µM [inhibitor, single point]",
O=C(NCCC1CCCCN1S(=O)(=O)c1ccc(F)cc1)C(=O)NCc1cccnc1 (stereo unspecified),inactive,
C=CC(C)(C)c1c(O)c(CC=C(C)C)c(O)c2c(=O)c3ccc(O)c(O)c3oc12,active: 18.4 µM,
O=C(NCc1ccc(Cl)cc1)C(=O)Nc1cccc(Br)c1,inactive,
O=C(CC1C(=O)NCCN1C(=O)Nc1ccc(F)cc1F)Nc1cc(Cl)ccc1Cl (stereo unspecified),inactive,
COc1ccc(OCc2nc3ccccc3n2C(C)C)cc1,"inconclusive: 25.9 µM [inhibitor, single point]",
C[C@@H]1CN([C@H](C)CO)C(=O)CCCn2cc(nn2)CO[C@H]1CN(C)S(=O)(=O)c1ccc(Oc2ccccc2)nc1,"inconclusive: 0.651 µM [inhibitor, full curve, poor fit]",
Cc1ccccc1Nc1nc(N)nc(CSc2nc3ccccc3s2)n1,"inconclusive: 29.1 µM [inhibitor, single point]",
Cn1ccc2c(-c3ccc(CO)cc3)cc3c(c21)C1CCC3C1 (stereo unspecified),"inconclusive: 23.1 µM [inhibitor, single point]",
COc1ccccc1Oc1ccc(N2CC(C(=O)OCC(=O)c3ccccc3)CC2=O)cc1 (stereo unspecified),inactive,
CCOc1ccc(N(CC(=O)NC2CC3CCC2C3)S(=O)(=O)c2ccc(C)cc2)cc1 (stereo unspecified),"inconclusive: 29.1 µM [inhibitor, single point]",
